{"source": "the BET-seq Pho4 binding data (Le et al. 2018)", "note": "Some of the results follow. The energies were worked out here from pooled read counts, against the library average; single values are noisy."}
{"target": "T1, Pho4 (S. cerevisiae) (UniProt P07270)", "T1 sequence": "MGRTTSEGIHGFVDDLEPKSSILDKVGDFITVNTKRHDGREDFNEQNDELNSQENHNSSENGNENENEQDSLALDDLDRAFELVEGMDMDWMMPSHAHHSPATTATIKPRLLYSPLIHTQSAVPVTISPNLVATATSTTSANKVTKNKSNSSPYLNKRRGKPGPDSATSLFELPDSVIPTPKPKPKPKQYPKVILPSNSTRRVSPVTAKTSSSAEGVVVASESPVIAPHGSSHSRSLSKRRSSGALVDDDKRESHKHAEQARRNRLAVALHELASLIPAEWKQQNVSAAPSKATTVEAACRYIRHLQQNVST", "assay": "relative binding free energy (BET-seq); higher = weaker binding", "settings": "reference: library average", "units": {"relative binding free energy": "kcal/mol"}}
{"sequence": "AGTATCACGTGCTTGG", "relative binding free energy": 0.03}
{"sequence": "AGATGCACGTGGGCTT", "relative binding free energy": -0.19}
{"sequence": "CAGTACACGTGAGTGG", "relative binding free energy": 0.23}
{"sequence": "GGAGGCACGTGCGGGG", "relative binding free energy": -0.06}
{"sequence": "GGCTGCACGTGATTGG", "relative binding free energy": 0.15}
{"sequence": "GCGGTCACGTGGAATG", "relative binding free energy": 0.23}
{"sequence": "TATCTCACGTGGTTGG", "relative binding free energy": 0.13}
{"sequence": "CGTGGCACGTGTCGTT", "relative binding free energy": -0.04}
{"sequence": "TATATCACGTGGATTA", "relative binding free energy": 0.04}
{"sequence": "GGCTACACGTGTTATG", "relative binding free energy": 0.19}
{"sequence": "TCTGACACGTGATTAG", "relative binding free energy": 0.26}
{"sequence": "ATTGGCACGTGCGTAA", "relative binding free energy": -0.29}
{"sequence": "GCTTACACGTGGTGTT", "relative binding free energy": 0.09}
{"sequence": "TTGGTCACGTGGAAAC", "relative binding free energy": 0.34}
{"sequence": "ATATTCACGTGGAAGG", "relative binding free energy": 0.24}
{"sequence": "GGAAGCACGTGAAGTT", "relative binding free energy": 0.13}
{"sequence": "AGCGTCACGTGGAATT", "relative binding free energy": 0.21}
{"sequence": "GGTCACACGTGAGAGT", "relative binding free energy": 0.29}
{"sequence": "CTGGTCACGTGGGGAA", "relative binding free energy": -0.13}
{"sequence": "TGTGGCACGTGCAGAG", "relative binding free energy": -0.12}
{"sequence": "TGTATCACGTGTTCCT", "relative binding free energy": 0.06}
{"sequence": "AGGGACACGTGGTGGT", "relative binding free energy": -0.08}
{"sequence": "GTGGACACGTGGGTCT", "relative binding free energy": -0.1}
{"sequence": "TGGGTCACGTGAGTCG", "relative binding free energy": 0.25}
{"sequence": "TGGATCACGTGAACGT", "relative binding free energy": 0.53}
{"sequence": "GCTTACACGTGATTTT", "relative binding free energy": 0.41}
{"sequence": "AGGCACACGTGTGGTA", "relative binding free energy": -0.05}
{"sequence": "TGGTCCACGTGTTTGT", "relative binding free energy": 0.04}
{"sequence": "GTAATCACGTGCGTGA", "relative binding free energy": 0.17}
{"sequence": "ACGTGCACGTGATGCG", "relative binding free energy": -0.02}
{"sequence": "GTGCGCACGTGATGGA", "relative binding free energy": 0.02}
{"sequence": "ATTAGCACGTGTAGTT", "relative binding free energy": -0.04}
{"sequence": "GATGACACGTGAGGGG", "relative binding free energy": 0.39}
{"sequence": "TTTCACACGTGGTATT", "relative binding free energy": -0.13}
{"sequence": "CTTAGCACGTGGTAAG", "relative binding free energy": -0.1}
{"sequence": "TGTATCACGTGTGTCA", "relative binding free energy": 0.09}
{"sequence": "TTATGCACGTGAGAGG", "relative binding free energy": 0.22}
{"sequence": "TAGTCCACGTGTGTAT", "relative binding free energy": 0}
{"sequence": "TGGACCACGTGCGGTG", "relative binding free energy": -0.06}
{"sequence": "CTTGGCACGTGTGTGT", "relative binding free energy": -0.13}
{"sequence": "GGATTCACGTGAGAAG", "relative binding free energy": 0.49}
{"sequence": "ATAGACACGTGCTGTG", "relative binding free energy": 0.02}
{"sequence": "GATGTCACGTGAGAGG", "relative binding free energy": 0.41}
{"sequence": "CTAATCACGTGAGGGG", "relative binding free energy": 0.3}
{"sequence": "TTGCTCACGTGGGCAT", "relative binding free energy": -0.04}
{"sequence": "GGAAGCACGTGCTGGG", "relative binding free energy": -0.16}
{"sequence": "GGGGGCACGTGCAATG", "relative binding free energy": -0.07}
{"sequence": "GTTTGCACGTGGGCCG", "relative binding free energy": -0.08}
{"sequence": "TGGCGCACGTGAGGGT", "relative binding free energy": 0.14}
{"sequence": "ATCGGCACGTGCAGGG", "relative binding free energy": -0.14}
{"sequence": "GGTGTCACGTGCTTGT", "relative binding free energy": -0.04}
{"sequence": "GCGTGCACGTGGGAAG", "relative binding free energy": -0.16}
{"sequence": "GGGAGCACGTGCGATG", "relative binding free energy": -0.05}
{"sequence": "TGGTTCACGTGTTATC", "relative binding free energy": 0.27}
{"sequence": "GGTTGCACGTGTGTGA", "relative binding free energy": 0.14}
{"sequence": "TCTTTCACGTGGAGGT", "relative binding free energy": 0.4}
{"sequence": "TCATACACGTGGGGTG", "relative binding free energy": -0.2}
{"sequence": "GTTAACACGTGAGGCA", "relative binding free energy": 0.29}
{"sequence": "GCGTGCACGTGAGGTT", "relative binding free energy": 0.31}
{"sequence": "TTAAACACGTGAGGCG", "relative binding free energy": 0.34}
{"sequence": "TTCGACACGTGTGAGA", "relative binding free energy": 0.32}
{"sequence": "AGGTACACGTGGCGGC", "relative binding free energy": 0.04}
{"sequence": "TAGTGCACGTGGTGTC", "relative binding free energy": -0.24}
{"sequence": "CTGTACACGTGGTTAT", "relative binding free energy": 0.01}
{"sequence": "TGAAACACGTGAGGGG", "relative binding free energy": 0.24}
{"sequence": "ACTATCACGTGTTGTA", "relative binding free energy": 0.14}
{"sequence": "GTTTTCACGTGGCGAT", "relative binding free energy": 0.28}
{"sequence": "GGCGTCACGTGATGCG", "relative binding free energy": 0.09}
{"sequence": "AGGTACACGTGGGGCC", "relative binding free energy": -0.08}
{"sequence": "TTCCACACGTGTGTGG", "relative binding free energy": 0.08}
{"sequence": "GGTGTCACGTGGTTCT", "relative binding free energy": 0.08}
{"sequence": "TTGGTCACGTGATGAG", "relative binding free energy": 0.26}
{"sequence": "CGGAGCACGTGCTTGG", "relative binding free energy": -0.09}
{"sequence": "AGTTGCACGTGGTTCT", "relative binding free energy": -0.17}
{"sequence": "TTGAACACGTGGTATG", "relative binding free energy": -0.03}
{"sequence": "GTAAACACGTGAAGTT", "relative binding free energy": 0.49}
{"sequence": "GTGTCCACGTGCGGTT", "relative binding free energy": 0.09}
{"sequence": "TGTGGCACGTGAGGCT", "relative binding free energy": 0.14}
{"sequence": "TTCAGCACGTGTGTTT", "relative binding free energy": 0.02}
{"sequence": "CAGGGCACGTGGTGAA", "relative binding free energy": -0.12}
{"sequence": "GGGGCCACGTGTTCAG", "relative binding free energy": 0.08}
{"sequence": "CGGCTCACGTGGTGAG", "relative binding free energy": 0.09}
{"sequence": "ATTGTCACGTGAGGAT", "relative binding free energy": 0.13}
{"sequence": "TATCTCACGTGATGTT", "relative binding free energy": 0.29}
{"sequence": "TATACCACGTGTAGTG", "relative binding free energy": -0.06}
{"sequence": "TGGGACACGTGCATTG", "relative binding free energy": -0.01}
{"sequence": "GCGAACACGTGGTGTG", "relative binding free energy": -0.11}
{"sequence": "ATAGACACGTGCTAGG", "relative binding free energy": 0.09}
{"sequence": "TGGAGCACGTGGTACA", "relative binding free energy": -0.12}
{"sequence": "TGTATCACGTGGTCGA", "relative binding free energy": 0.1}
{"sequence": "CGAGCCACGTGGTGGG", "relative binding free energy": -0.2}
{"sequence": "ATTAACACGTGGGGTA", "relative binding free energy": 0.02}
{"sequence": "AGATTCACGTGGTGGA", "relative binding free energy": 0.25}
{"sequence": "AGTTGCACGTGGCTAT", "relative binding free energy": -0.12}
{"sequence": "AGTCTCACGTGAATTG", "relative binding free energy": 0.33}
{"sequence": "ACTGTCACGTGGGTTA", "relative binding free energy": -0.18}
{"sequence": "TGGAGCACGTGTGACG", "relative binding free energy": -0.03}
{"sequence": "TTTCACACGTGTGAGT", "relative binding free energy": 0.17}
{"sequence": "TAGGGCACGTGACTTT", "relative binding free energy": -0.06}
{"sequence": "ATTTTCACGTGGGGTC", "relative binding free energy": 0.18}
{"sequence": "GTTGACACGTGTTGAA", "relative binding free energy": 0.15}
{"sequence": "GAATGCACGTGTGAAG", "relative binding free energy": 0.33}
{"sequence": "CTTGGCACGTGTATTG", "relative binding free energy": -0.16}
{"sequence": "GGTTTCACGTGCTGTC", "relative binding free energy": 0.32}
{"sequence": "GTGGACACGTGGTAGC", "relative binding free energy": 0.01}
{"sequence": "CTAGGCACGTGTGGGC", "relative binding free energy": -0.04}
{"sequence": "CATGGCACGTGGGGCG", "relative binding free energy": -0.19}
{"sequence": "GGGCTCACGTGGGAAT", "relative binding free energy": 0.34}
{"sequence": "AGCGTCACGTGAGGTT", "relative binding free energy": 0.11}
{"sequence": "TAACGCACGTGGTCTT", "relative binding free energy": 0.11}
{"sequence": "GATTGCACGTGTTCAT", "relative binding free energy": 0.08}
{"sequence": "GGCGTCACGTGGGGCA", "relative binding free energy": 0.06}
{"sequence": "TTGTTCACGTGCTGTA", "relative binding free energy": 0.17}
{"sequence": "GTTGACACGTGTTGGA", "relative binding free energy": 0.13}
{"sequence": "TTGAGCACGTGAGAAG", "relative binding free energy": 0.06}
